Sequences with one replicate were seen in a single cluster, so their values are uncertain.
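Also: ATP exposure 15 min at 22 °C before imaging.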

This data set relates to ATP. Briefly: switch fluorescence ratio, 500 uM ATP over buffer (Cy3 cluster intensity, sum of 5 cycles each) (fold (ratio)); higher = stronger signal-on switching upon ATP binding; sequences stand for … in TCGTCGGCAGCGTCAGATGTGTATAAGAGACAGTTTTTTTTTTTTTTTTTTTTTTTTT…TC. As to conditions: aptamer strand: ATP DNA aptamer (quencher-CACCTGGGGGAGTATTGCGGAGGAAGG + anchor), 100 nM annealed; ATP concentration: 500 uM; one replicate. Put shortly: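 Cy3-labelled switching-strand clusters on a modified Illumina MiSeq flow-cell were annealed to 100 nM quencher-labelled ATP aptamer and imaged first in selection buffer, then after 15 min with 500 uM ATP at 22 °C. NaOH stripping and re-annealing separated each of five buffer/ATP cycles, and clusters outside 100-1000 RFU were excluded. The fluorescence ratio sums target-cycle Cy3 intensity over buffer-cycle Cy3 intensity per cluster and averages it per switch-domain sequence.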
Turning to GACAGCATCG, the switch fluorescence ratio came to 1.11.
The same measure for GTTGGACGGG: 1.02.
For GGGGCATGTT, the switch fluorescence ratio is 1.01.
The same measure for GATCCGGCAT: 1.11; for CGTATTTACA: 1.01.
Next, GAGATGTAGC: 0.944; CGCGGTCGAG: 1.09; AACGCCCTCT: 1.02.
The same measure for TTCGAAGAGG: 0.992.
Turning to ACCAACCTTT, the switch fluorescence ratio amounted to 1.13.
With ACTTGTCTTG, the switch fluorescence ratio was 0.969.
The same measure for CCATGCCAAC: 1.3.
Next, AGCGGCAAAG: 1.03; TGCTGGCCAT: 0.983; GGCACTGAGT: 1.07.
The same measure for CAAGATGTTT: 0.955; for CCTTAGGGCA: 1.02.
For AAATTATT, the switch fluorescence ratio worked out at 0.988.
For the sequence AGTATAGGTG, the switch fluorescence ratio came to 1.
Turning to GTCTGGTTTG, the switch fluorescence ratio worked out at 0.96.
Regarding GCTTAGAT, the switch fluorescence ratio worked out at 1.01.
Take GTGTTTTCAT: the switch fluorescence ratio was 0.97.
Next, TTGCCTAGGC: 1.06; TACGCTTCGG: 0.979.
The same measure for GACAGTAGTG: 0.991.
Take ACAGTCGTGG: the switch fluorescence ratio is 1.03.
Next, CACCGTCTCG: 1.06; AATAATTCAC: 1.05; ATGTTTACCA: 0.993.
Next, CTGAGAATTG: 1.
For GCGAGCAGGT, the switch fluorescence ratio is 1.06.
AACCTGTGGT: the switch fluorescence ratio is 0.968.
Next, TCCCTTAAGG: 0.986; TCCGTCGGTG: 1.02.
Next, TTTTGGCTT: 0.997; GTTACTTCGC: 1.59.
Next, GGTGCAGAGG: 0.978.
Take ATTGTAGTGA: the switch fluorescence ratio was found to be 1.01.
The same measure for ATAGTCTAGC: 0.967.
On to CGAGAGTCTG, for which the switch fluorescence ratio came out at 0.954.
Next, TACCGTCAGG: 0.979; ATGACTAAAC: 1.05.
On to GCGCGGAGA, for which the switch fluorescence ratio came to 1.02.
The same measure for TGTCTTATTA: 0.982; for CACTCGTCTG: 1.01.
The same measure for TAGGCAGTTT: 0.995.
With GAACCGGTCG, the switch fluorescence ratio is 1.02.
TAGGCCGACG: the switch fluorescence ratio worked out at 1.01.
The same measure for AACTGAAAGA: 0.978; for CTCGCGCCTG: 0.978; for TTATACTAGG: 1.01.
Turning to TGAAGCCCAT, the switch fluorescence ratio was found to be 1.05.
Next, CGTTTCAATC: 1.16; CTTCACACC: 1.17; CAACACCGTA: 1.01.
The same measure for CCTTGGCGAG: 1.18.
Regarding TGAGGAATGA, the switch fluorescence ratio turned out to be 1.03.
Next, ATTTTACACT: 1.03; TAGTCCTAAG: 1.01; AAAAGGGGAC: 1.01.
The same measure for GAATACTTAA: 0.994; for CAGGTATACA: 1.03; for ATCCATGGAG: 1.
Next, ATATCCTTGC: 1.64; AACCGGGGCT: 1.09; TTAATTCAA: 0.961.
As to TGCTAAAAGA, the switch fluorescence ratio came out at 1.01.
The same measure for TAGTATGGCC: 0.957.
Regarding TATTTACCTA, the switch fluorescence ratio came to 1.1.
On to AAGGATATT, for which the switch fluorescence ratio amounted to 0.969.
Next, GCACTGGGCA: 0.952; CTGTGCTAAG: 0.949; TCTTTCCCCG: 1.16.
Next, GGCTGATAGT: 0.985.
Next, ATGAAGGCAT: 0.985; TCAGGGTGT: 1.02.
In the case of CAGCAAAGGG, the switch fluorescence ratio was 1.09.
As to GACTTGACAG, the switch fluorescence ratio is 1.
Consider TTTAGCCAGG, for which the switch fluorescence ratio was 1.11.
As to AGATGGGGTC, the switch fluorescence ratio stood at 0.995.
Regarding GAGCAGTACA, the switch fluorescence ratio stood at 1.74.
Next, CTTAATGATC: 0.982; TGATTATCTA: 0.973.
TAGAGGACAA: the switch fluorescence ratio was determined as 0.991.
With GTGAGACTCA, the switch fluorescence ratio came to 1.03.
Next, CGATAGAGGG: 0.963.
The same measure for TTTGAGCCCA: 0.997.
Next, GGAGGGCTGC: 1.01; GGATCCGTGG: 1.05.
For TGAGCGCAAG, the switch fluorescence ratio was 1.09.
The same measure for TTACAAATCG: 0.998; for GTTGGTCGAT: 1.01.
Consider CACAGACCCA, for which the switch fluorescence ratio stood at 1.13.
The same measure for GGTAACGAAA: 1.02; for ATCACCGGGC: 1.07.
The same measure for GTCTAGCAAG: 1.03; for AGAGGGCCGC: 1.04; for TCTTTATAGC: 1.03.
The same measure for CCATTATCTT: 1.03; for ACTCTGGGTG: 2.08; for TAGCAAAGTA: 0.975.
Turning to GCCCGGTTAC, the switch fluorescence ratio was found to be 1.78.
Next, TGATAGAAAT: 1.01.
For the sequence TTTAAGCGTA, the switch fluorescence ratio was determined as 0.966.
The same measure for TAGGAGGCCA: 0.944.
The same measure for ATGTGCATTA: 0.998; for AAATAAAGTT: 1.02.
Next, ACAGGCGGTT: 0.955.
As to CTAGGGCATC, the switch fluorescence ratio worked out at 0.99.
GAGAAATTTG: the switch fluorescence ratio stood at 1.02.
Next, TGCCCATCAG: 1.02; GGCCGCACGT: 1.05.
The same measure for CCTATAAGGA: 0.997.
The same measure for AGCTGGTCGG: 1.05; for AGACGCTCG: 0.911.
With AGTGCTCTGA, the switch fluorescence ratio is 0.944.
For the sequence TCGTCACGCT, the switch fluorescence ratio is 1.02.
Next, CCAGGAGACA: 1.04; TCGTGCGGAA: 1.25.
Take GATAAATACT: the switch fluorescence ratio stood at 1.09.

Source of the values: the supplement of paper PMC10126150.
